Consider 14 molecules from article PMC12136788.

First the molecules themselves.
T1: UNK ZnF1-3 (human, UniProt Q9C0B0 31-174)
T1 sequence: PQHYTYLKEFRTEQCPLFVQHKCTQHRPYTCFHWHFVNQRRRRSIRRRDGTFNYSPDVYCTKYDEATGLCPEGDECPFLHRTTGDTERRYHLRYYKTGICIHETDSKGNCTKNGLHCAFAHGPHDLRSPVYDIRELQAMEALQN

B1: chr6:108533379:108533380:-_ENSG00000112335_ENST00000426155|hu_hu|FALSE|FALSE (ssRNA)
RNA: GGGAGUUCUACAGUCCGACGAUCGCCCCUUCUUGCCAAAUUUCAGGCAUGUCUUAUUUUAGAUGGAGUAUAGCUUUUAUCUAUUAUUUCAUCUUGUAAAAACAUGUGAAGACAACGUUCGUUCUGUGCCAGAGGAUGACCAGCCAACAGAGGAUUGAGCAUCA
B2: chr5:135513207:135513208:+_ENSG00000113658_ENST00000545279|hu_mus|motif|central (ssRNA)
RNA: GGGAGUUCUACAGUCCGACGAUCCCAUGUCAGCUCACAGCAUCUGUACUGGAAAUUCCUCUAAAAUUAAAACAAGUCCACGGAAAAUAUAGUUGAAAGAAUACUUCUGCACUAUGAAACAGAAGAAAUGGGGUUCAGCGGAGACAACAGAGGAUUGAGCAUCA
B3: 38536359_38536479_3342_CDS_ENSG00000182670_ENST00000355666|human|control|control (ssRNA)
RNA: GGGAGUUCUACAGUCCGACGAUCCCAUAGCUUCUUAUUGCGGACAACAUAUUCGUUACUGUGUUGGUCAUAGAGAGCUUCGAAUUCUUCUACAUCUUGCCGAAGAUGGUCAGGCACUGCAAAUGGGCCUGCAGAAUCUGAAUUCAACAGAGGAUUGAGCAUCA
B4: chr3:179052105:179052106:+_ENSG00000121864_ENST00000484866|hu_mus|motif|central (ssRNA)
RNA: GGGAGUUCUACAGUCCGACGAUCCCCAAACCUCAUCAAGCACUCACUACAUUUAUGAGGCAAGUCAGCUGAAUGCUUGAAAUCGGGAUGAAUUUUAAGAUCGUCAAUUUGUCCUGUUGAAUAUUCACAAUAUUGGCAUAAGUACAACAGAGGAUUGAGCAUCA
B5: chr8:95500983:95500984:-_ENSG00000164944_ENST00000437199|hu_hu|hu_hu_hu_mus_True|28_108 (ssRNA)
RNA: GGGAGUUCUACAGUCCGACGAUCAGAAGGAUUUUUACGAGUAAAGGACCGUACAUGACGGCCUCUACCACUGCCUCCACUAACAAACUUUCCUCUCGAGCCUCCACCUGCCGCUAUUGUACUAGCCCAGGACGGUCCCAGGCCCAACAGAGGAUUGAGCAUCA
B6: chr14:55818557:55818558:+_ENSG00000178974_ENST00000313833|hu_hu|FALSE|FALSE (ssRNA)
RNA: GGGAGUUCUACAGUCCGACGAUCUGUUGUGCUUUCAUUCAACUGGGAAUAGUCUGACAAGUGCUGACCAGGUGGCAAAAAAAACAACAUCCCUGGAACUGGGUCUUCACAGGAGUUUAAAAUGGAAGGCUGGUCUUUGUCUACCAACAGAGGAUUGAGCAUCA
B7: chr18:56819859:56819860:+_ENSG00000166562_ENST00000588875|hu_mus|hu_hu_hu_mus_True|38_78 (ssRNA)
RNA: GGGAGUUCUACAGUCCGACGAUCAACCUUGAUUACUCUGUGAACUAUCGGAAUGUCUCGUCCUUCAACCUUAAAAACAACUAUUUCACCAGCUCUGAUUGGGUCUUCCCGGAAAUUCGUGAGGAACAGCAGAUCUCCUCUGUGCAACAGAGGAUUGAGCAUCA
B8: chr18:34476965:34476966:+_ENSMUSG00000005871_ENSMUST00000115781|mus_mus|motif|central (ssRNA)
RNA: GGGAGUUCUACAGUCCGACGAUCCAGUUUCCUCCUCAGGGUUGGGCUUGGGGCUUCUUUGAUGAAAGUAGACUGGCGUACGGAUGCAGGCCUUUCUGAUCUGUCUGAUUCACUUCCACUUGAUUUAGUUGAAGACAUUCUAGACAACAGAGGAUUGAGCAUCA
B9: chr16:94664741:94664742:+_ENSMUSG00000040785_ENSMUST00000117648|mus_hu|mus_mus_mus_hu_False|8_98 (ssRNA)
RNA: GGGAGUUCUACAGUCCGACGAUCUGGUACUGAUCUUUGCAUUGGAUAUUCAGGAGAAAGGCUGGCCAAGGGUGUAUAUAUGCUGGUGUACUGGGGCAAACCUGGUAACACGUUUAUGUAUGCUGGCCGCUGGGUGAUGAUAUCCAACAGAGGAUUGAGCAUCA
B10: chr10:33190432:33190433:-_ENSG00000150093_ENST00000302278|hu_mus|hu_hu_hu_mus_True|48_108 (ssRNA)
RNA: GGGAGUUCUACAGUCCGACGAUCUACAUUUUCAAAACCUGCAUGUGAAUAAAACCCUGGCCACAGAGCCCCAAAACUACCCUACUGUGACUAUGGAGCUGCUGCUGUGAGCUUGGUGUUGCAAAAUCCGCCUGAGUAGGAUUCCAACAGAGGAUUGAGCAUCA
B11: 40576651_40585488_1869_3pUTR_ENSMUSG00000025757_ENSMUST00000077083|mouse|control|control (ssRNA)
RNA: GGGAGUUCUACAGUCCGACGAUCGAGGUGCCUUUGCUUUGGCCCCGGUGUGGUCAAUCUCCUCUUCUGGGGUGUGCUCAGCAUGACAUUUCUGAUGACCUCCUUCUUCUUGGUCAACCUGCAUUUUGUCCACAUCCUCUUUGCCAACAGAGGAUUGAGCAUCA
B12: chr2:119791414:119791415:+_ENSMUSG00000033943_ENSMUST00000110774|mus_mus|FALSE|FALSE (ssRNA)
RNA: GGGAGUUCUACAGUCCGACGAUCUCCUACUUUACCAGAAAGCUUAGGUUUUUAAUUAUGACUGAAAGGGUAAGGGAAGAACUAUUCUGGAUAUGAAACAGUCUGCUGAAUGACAAAAUCCCUUCACUUUGGUAUUCCAUAAUACAACAGAGGAUUGAGCAUCA
B13: chr8:86505109:86505110:+_ENSMUSG00000005469_ENSMUST00000005606|mus_mus|FALSE|FALSE (ssRNA)
RNA: GGGAGUUCUACAGUCCGACGAUCCUUGUGCUUCACCAGCAUCACUCGCCCAAAGGAGCCGGUGCCAAGGGUCUUGAUUCUAUCAAACUGAUCCAACUGGGCUGUAUUCUGAGAAGGGGUCUCCCAUUUUUUCAGGAAAUCUUCCAACAGAGGAUUGAGCAUCA
B14: 114483779_114483899_1066_CDS_ENSG00000163349_ENST00000369558|human|control|control (ssRNA)
RNA: GGGAGUUCUACAGUCCGACGAUCCUGCUGCAAGAUUGGUCUGAUGUACUUGAGUGGCAGUGGGCUAAAUUUGUUUUGCUUUAGAAAAUCAUAUAAGUUCUGCUCCAACAUUUCAAAAACAAGGCAGGUGUGAUUCUUAUGCUGCAACAGAGGAUUGAGCAUCA

Some of the results follow.

The target in the test is T1, UNK ZnF1-3. Kind of test: nsRBNS (natural sequence RNA bind-n-seq); RBNS binding buffer (assumed for nsRBNS): 25 mM Tris pH 7.5, 150 mM KCl, 3 mM MgCl2, 0.01% Triton X-100, 500 ug/ml BSA, 20 U/ml SUPERase-In, 4 C; UNK is unkempt and MSI1 is Musashi-1; names of the RNAs are library labels; protein concentration not given here; high values mean tight binding.
As for B1, the binding signal came to 1.03 enrichment R.

In the case of B2, the binding signal came out at 2.14 enrichment R.

B3 yielded a binding signal of 0.838 enrichment R. As to B4, the binding signal stood at 0.935 enrichment R.

B5 showed a binding signal of 1.09 enrichment R. In turn, B6 came in with a binding signal of 1.75 enrichment R.

Molecule B7 registered a binding signal of 0.872 enrichment R. Molecule B8 gave a binding signal of 0.66 enrichment R. As to B9, the binding signal was 1.16 enrichment R. Under B10 stands 1.17 enrichment R. In the case of B11, the binding signal was 0.406 enrichment R.

B12 showed a binding signal of 1.34 enrichment R. B13: the binding signal stood at 1.25 enrichment R. Molecule B14 showed a binding signal of 1.44 enrichment R.
